# The other results are listed elsewhere or left out.
# B1: Epa1to9 (Candida glabrata) (protein)
# chain: MGSSHHHHHHSSGLVPRGSHMTSSNDISLASKDPTTFPLGCSPDITTPKKGLSMELYSYDFRKKGSYPCWDAAYLDPNYPRTGYKSHRLLAKVDGVTGNINFYYHATKGCTPQLGHLPASYNYPKPLTMTNFTMLLYGYFRPKVTGFHTFTISADDLLFVNFGAGNAFDCCRRDSSADHFGNYQAYAIWGSKTAKDELTVHLDAGVYYPIRLFYNNRDYHGALSFTFKTESNENTVSDFSEYFFSLDDTEEGCPGLISYD
# How the values were obtained:
# Assay in all cases: glycan array binding signal (z-score within array); higher = stronger binding
# Conditions in all cases: glycan notation: IUPAC condensed, linker removed
# [1] = target: Fuc(a1-2)[GalNAc(b1-3)]Gal
# In short: (§1)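 Negative Z-scores can be read as non-binding. The Z-score is calculated within each array and then averaged across arrays of one protein sequence at different concentrations or buffers and across linkers. Arrays, 3228 in all, were curated from the Consortium for Functional Glycomics database and kept only where the protein sequence was available.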
# Fuc(a1-3)GlcNAc = target: Fuc(a1-3)GlcNAc
# In short: as §1
# [2] = target: Fuc(a1-3)[Gal(b1-4)]Glc6S
# In short: as §1
# [3] = target: Fuc(a1-3)[Gal(b1-4)]GlcNAc
# In short: as §1
# [4] = target: Fuc(a1-3)[Gal(b1-4)]GlcNAc(b1-2)Man
# In short: as §1
# [5] = target: Fuc(a1-3)[Gal(b1-4)]GlcNAc(b1-2)Man(a1-3)[Fuc(a1-3)[Gal(b1-4)]GlcNAc(b1-2)Man(a1-6)]Man(b1-4)GlcNAc(b1-4)GlcNAc
# In short: as §1
# [6] = target: Fuc(a1-3)[Gal(b1-4)]GlcNAc(b1-2)Man(a1-3)[Fuc(a1-3)[Gal(b1-4)]GlcNAc(b1-2)Man(a1-6)]Man(b1-4)GlcNAc(b1-4)[Fuc(a1-6)]GlcNAc
# In short: as §1
# [7] = target: Fuc(a1-3)[Gal(b1-4)]GlcNAc(b1-3)Gal(b1-3)[Fuc(a1-4)]GlcNAc
# In short: as §1
# [8] = target: Fuc(a1-3)[Gal(b1-4)]GlcNAc(b1-3)Gal(b1-4)[Fuc(a1-3)]GlcNAc
# In short: as §1
# [9] = target: Fuc(a1-3)[Gal(b1-4)]GlcNAc(b1-3)Gal(b1-4)[Fuc(a1-3)]GlcNAc(b1-3)Gal(b1-4)[Fuc(a1-3)]GlcNAc
# In short: as §1
# [10] = target: Fuc(a1-3)[Gal(b1-4)]GlcNAc(b1-3)GalNAc
# In short: as §1
# [11] = target: Fuc(a1-3)[Gal(b1-4)]GlcNAc(b1-6)GalNAc
# In short: as §1
# [12] = target: Fuc(a1-3)[Gal(b1-4)]GlcNAc(b1-6)[Gal(b1-3)GlcNAc(b1-3)]Gal(b1-4)Glc
# In short: as §1
# [13] = target: Fuc(a1-3)[Gal(b1-4)]GlcNAc6S
# In short: as §1
# [14] = target: Fuc(a1-3)[Gal3S(b1-4)]Glc
# In short: as §1
# [15] = target: Fuc(a1-3)[Gal3S(b1-4)]GlcNAc
# In short: as §1
# [16] = target: Fuc(a1-3)[Gal3S(b1-4)]GlcNAc6S
# In short: as §1
# [17] = target: Fuc(a1-3)[GalNAc(b1-4)]GlcNAc
# In short: as §1
# [18] = target: Fuc(a1-3)[GalNAc(b1-4)]GlcNAc6S
# In short: as §1
# Fuc(a1-4)GlcNAc = target: Fuc(a1-4)GlcNAc
# In short: as §1
# Fuc(b1-3)GlcNAc = target: Fuc(b1-3)GlcNAc
# In short: as §1
# Gal(a1-2)Gal = target: Gal(a1-2)Gal
# In short: as §1
# Gal(a1-3)Gal = target: Gal(a1-3)Gal
# In short: as §1
# Gal(a1-3)Gal(b1-3)GlcNAc = target: Gal(a1-3)Gal(b1-3)GlcNAc
# In short: as §1
# [19] = target: Gal(a1-3)Gal(b1-3)GlcNAc(b1-2)Man
# In short: as §1
# [20] = target: Gal(a1-3)Gal(b1-3)GlcNAc(b1-2)Man(a1-3)[Gal(a1-3)Gal(b1-3)GlcNAc(b1-2)Man(a1-6)]Man(b1-4)GlcNAc(b1-4)GlcNAc
# In short: as §1
# [21] = target: Gal(a1-3)Gal(b1-3)GlcNAc(b1-3)GalNAc
# In short: as §1
# [22] = target: Gal(a1-3)Gal(b1-3)GlcNAc(b1-6)GalNAc
# In short: as §1
# [23] = target: Gal(a1-3)Gal(b1-3)[Fuc(a1-4)]GlcNAc(b1-2)Man(a1-3)[Gal(a1-3)Gal(b1-3)[Fuc(a1-4)]GlcNAc(b1-2)Man(a1-6)]Man(b1-4)GlcNAc(b1-4)GlcNAc
# In short: as §1
# Gal(a1-3)Gal(b1-4)Glc = target: Gal(a1-3)Gal(b1-4)Glc
# In short: as §1
# Gal(a1-3)Gal(b1-4)GlcNAc = target: Gal(a1-3)Gal(b1-4)GlcNAc
# In short: as §1
# [24] = target: Gal(a1-3)Gal(b1-4)GlcNAc(b1-2)Man
# In short: as §1
# [25] = target: Gal(a1-3)Gal(b1-4)GlcNAc(b1-2)Man(a1-3)[Gal(a1-3)Gal(b1-4)GlcNAc(b1-2)Man(a1-6)]Man(b1-4)GlcNAc(b1-4)GlcNAc
# In short: as §1
# [26] = target: Gal(a1-3)Gal(b1-4)GlcNAc(b1-3)GalNAc
# In short: as §1
# [27] = target: Gal(a1-3)Gal(b1-4)GlcNAc(b1-6)GalNAc
# In short: as §1
# [28] = target: Gal(a1-3)Gal(b1-4)[Fuc(a1-3)]GlcNAc
# In short: as §1
# [29] = target: Gal(a1-3)Gal(b1-4)[Fuc(a1-3)]GlcNAc(b1-2)Man(a1-3)[Gal(a1-3)Gal(b1-4)[Fuc(a1-3)]GlcNAc(b1-2)Man(a1-6)]Man(b1-4)GlcNAc(b1-4)GlcNAc
# In short: as §1
binder,measurement,setting,value
B1,glycan array binding signal (z-score),[1],-0.355
same,glycan array binding signal (z-score),Fuc(a1-3)GlcNAc,-0.354
same,glycan array binding signal (z-score),[2],-0.207
same,glycan array binding signal (z-score),[3],-0.328
same,glycan array binding signal (z-score),[4],-0.308
same,glycan array binding signal (z-score),[5],-0.354
same,glycan array binding signal (z-score),[6],-0.275
same,glycan array binding signal (z-score),[7],-0.328
same,glycan array binding signal (z-score),[8],-0.309
same,glycan array binding signal (z-score),[9],-0.261
same,glycan array binding signal (z-score),[10],-0.293
same,glycan array binding signal (z-score),[11],-0.272
same,glycan array binding signal (z-score),[12],-0.326
same,glycan array binding signal (z-score),[13],0.08
same,glycan array binding signal (z-score),[14],-0.309
same,glycan array binding signal (z-score),[15],-0.308
same,glycan array binding signal (z-score),[16],0.005
same,glycan array binding signal (z-score),[17],-0.34
same,glycan array binding signal (z-score),[18],-0.365
same,glycan array binding signal (z-score),Fuc(a1-4)GlcNAc,-0.346
same,glycan array binding signal (z-score),Fuc(b1-3)GlcNAc,-0.348
same,glycan array binding signal (z-score),Gal(a1-2)Gal,-0.182
same,glycan array binding signal (z-score),Gal(a1-3)Gal,0.432
same,glycan array binding signal (z-score),Gal(a1-3)Gal(b1-3)GlcNAc,0.327
same,glycan array binding signal (z-score),[19],0.245
same,glycan array binding signal (z-score),[20],-0.189
same,glycan array binding signal (z-score),[21],0.002
same,glycan array binding signal (z-score),[22],0.165
same,glycan array binding signal (z-score),[23],-0.268
same,glycan array binding signal (z-score),Gal(a1-3)Gal(b1-4)Glc,0.06
same,glycan array binding signal (z-score),Gal(a1-3)Gal(b1-4)GlcNAc,0.858
same,glycan array binding signal (z-score),[24],0.008
same,glycan array binding signal (z-score),[25],0.227
same,glycan array binding signal (z-score),[26],0.082
same,glycan array binding signal (z-score),[27],0.192
same,glycan array binding signal (z-score),[28],0.318
same,glycan array binding signal (z-score),[29],-0.204
